Experiments:
[1] = biological target: T1, HiCuAO5 (Heliotropium indicum, UniProt A0A8T9EJA1); conditions: 48 h incubation; desalted crude extract of expressing leaves, empty vector control
T1 construct: gene CuAO5

[2] = biological target: T2, HiCuAO3 (Heliotropium indicum, UniProt A0A8T9EV85); conditions: 48 h incubation
T2 construct: gene CuAO3

[3] = biological target: T1, HiCuAO5; conditions: desalted crude extract of expressing leaves

Structure (SMILES): NCCCCNCCCCN [Hspd]
- in vitro incubation, GC-MS product identification [1]: Only in incubations of HiCuAO3 and HiCuAO5 was the bicyclic pyrrolizidine identified
- in vitro incubation, GC-MS product identification [2]: Only in incubations of HiCuAO3 and HiCuAO5 was the bicyclic pyrrolizidine identified

Structure (SMILES): NCCCCN [Put]
- CuAO-specific colorimetric assay [3]: the desalted crude protein extract of HiCuAO5 showed activity with Put as substrate
